# ± gives the standard deviation of the averaged measurements. The list shows a part of the results.
# System: PfAP2-G AP2 domain (GST-tagged)
# Assay: gcPBM binding intensity (ln(normalized median fluorescence intensity)); higher = stronger DNA binding
# Procedure, shortened: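 For binding intensity, the highest Masliner-normalised natural-log median intensity across replicate spots of either probe orientation was taken. Protein bound to the array was stained with Alexa488 anti-GST antibody and scanned at 488 nm. The protein, GST-tagged P. falciparum DNA-binding domains from E. coli at about 25 μg on average, had been applied for 1 h to an Agilent 4 × 180k array of primer-extended double-stranded 36-bp intergenic genomic probes and negative controls.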
row,Sequence,gcPBM binding intensity (ln)
1,TTTAGACTTTTCTATAGTACATATTATATATATATA [XGTACX_site6532],10.7 ± 0.49
2,AGTGTATTAAATTTTGAACACACAAAATAAAACATA [CACACA_site8483],10.2 ± 0.2
3,ATTGAAAAACCGTTTAGTACATATCATCACGTTTGT [XGTACX_site1295],10.9 ± 0.52
4,TATATATATATATGTACACACATCAATCATATTAAC [CACACA_site1946],11.4 ± 0.95
5,TATATATATATATATACATGCATTTTTGTTTGCTTA [TGCATGCA_site256],9.88 ± 0.35
6,TTTTTTTTTTCTCCTGCATGCAGCATTTATATATTA [TGCATGCA_site390],10.1 ± 0.28
7,GACAACGTTTCAATGTGTACATATTTATAATATATA [XGTACX_site2427],11.5 ± 0.95
8,TACAAATATAGATGCACACACATATACATACCTATA [CACACA_site7094],10.1 ± 0.2
9,TTTTTACAAAAAAAAAAAAAAAAAATAAAAATAAAT [CACACA_negctrl_site1738],9.52 ± 0.028
10,TTTTTTTTTTTTTTTACACACTGCATACAAGAAAAA [CACACA_site5642],10.1 ± 0.49
11,AAAATACGAATATAAACATGCACCATATAGAACAAA [TGCATGCA_site925],10.2 ± 0.16
12,TAAAATAAAATAAGTAGTACATATATAATTATATAT [XGTACX_site6733],11.5 ± 1
13,GACGTGGAAAAAAAAACACACACAAAAAAAAAAAAA [CACACA_site9324],9.95 ± 0.42
14,TGAACATCATTTTTATGTACACACACATATACGTTG [XGTACX_site3864],11.4 ± 0.86
15,AAAACAAACAAAAAAAAAAAAAAAAATATCAATCTA [TGCATGCA_negctrl_site203],9.22 ± 0.27
16,TTTTTTAAATATTATTTTTATGAGTAAATATATTAT [GTGCAC_negctrl_site277],9.73 ± 0.028
17,ATATATCATGCCAAGGGTACAAATGTGTAGTTGAAA [XGTACX_site2820],11.1 ± 0.52
18,GAAAAAAAAAAAAAAAGTACATTCTCTATTTCATGT [XGTACX_site3209],11.3 ± 0.91
19,CGCGCACCCAGACACACACACACACCCATATATATA [CACACA_site2203],10.3 ± 0.4
20,ACGTATAATATGTACACACACATATATACCAAAAAA [CACACA_site4661],11.5 ± 1
21,GATAAAATAATATATAGTACTTTTTTAAAATAAATA [XGTACX_site522],11 ± 0.65
22,TAATTACCATATGGTACACACATATTTATAGGTATA [CACACA_site7603],11.2 ± 0.81

row,Sequence,gcPBM binding intensity (ln)
1,ATTTACAAAAATTTTGTATAAAGGGATTTTAAAATG [TGCATGCA_negctrl_site350],10.2 ± 0.14
2,TATAAAACACACACACATATATATATATATTTATAT [TGCATGCA_negctrl_site48],9.97 ± 0.16
3,AATTTTAAATTTAATTTACACACTTTTCATAGCATT [CACACA_site9264],10.01 ± 0.064
4,AGATGCCAAGTATAAAGTACATATCAAAATGTATAT [XGTACX_site456],11.1 ± 0.86
5,GAACAAAATTTTATATGTACATAATATTTATATATA [XGTACX_site3667],11.4 ± 0.8
6,TATATATACACACACACATGCATGCCGATATATATA [TGCATGCA_site29],10 ± 0.16
7,AAAAGATATTTGAATATACACACGATTTAAATTTAA [CACACA_site3865],9.8 ± 0.21
8,AAAGATTTAATCTATACATGCAAATATATAGAAAAG [TGCATGCA_site373],9.865 ± 0.021
9,AATAAAAATAGGAAATGTACACATATATATATATAT [XGTACX_site1853],11.2 ± 0.59
10,TTATTTTATTTTTATACACACATGTTTTAATGTTCA [CACACA_site249],9.9 ± 0.2
11,AAAACTTTTAAAATTTTGTATTCATTCCTTCAACAA [GTGCAC_negctrl_site697],9.78 ± 0.11
12,TTTATAATTCCATAATGTACAAATAAAATAAAAAAT [XGTACX_site663],10.9 ± 0.47
13,GTACAAAGGACTATACATAGAAAAATATATATATAT [XGTACX_negctrl_site164],10.6 ± 0.33
14,AGGAGGATAGTTCACAGTACCCAGTAACTCTACGAG [XGTACX_site2008],10.7 ± 0.41
15,AAAATTAATGTTGGTTGTACAAAAATTAAATATGGT [XGTACX_site66],11.3 ± 0.75
16,ATATATATATAAATATGTACATATATTTATTTCTTT [XGTACX_site3784],11.2 ± 0.76
17,GTGTGAGCACATTCGGGAGAGTTTTTTTTTTTTTTT [CACACA_negctrl_site1776],10.4 ± 0.24
18,TATAAAAATAAGCACACACACAAATATAGATTTATT [CACACA_site6558],10
19,AAAGTATATAGGATACGTACATACATAAATAAATAA [XGTACX_site8216],11.5 ± 0.83
20,GTACAAAATTGACAAGTGCAAAAATTAAAAGCAAGA [GTGCAC_site9838],10.9 ± 0.5
21,TGACATATAAAATATTCACACACAAGTTATAGTTCT [CACACA_site9209],9.74 ± 0.11
22,ACATTTTCTTATAAATGTACATATATATTATTATAT [XGTACX_site4404],11.1 ± 0.6

row,Sequence,gcPBM binding intensity (ln)
1,TATATTCAAAATGGTACACACAATATTTAATTGTGC [CACACA_site2631],11.1 ± 0.8
2,ACAAGTATTAATTACACACTCAAAAAGAAAAAACAA [CACACA_site2281],9.93 ± 0.028
3,TTAATAGAAATACGTGCACACTAAAGGGAAAACAAT [CACACA_site4923],10.7 ± 0.42
4,TGAATAAATATGCAGCGTACATAATCCTCTTAAAAT [XGTACX_site8462],11.1 ± 0.74
5,GTTAAATGAAAATATGTACACACTTGAAAATTTTTA [CACACA_site2924],11.5 ± 0.82
6,ATATATTCTATATATACATGCATATATATTATATGT [TGCATGCA_site185],9.84 ± 0.12
7,ATGTATCCAATAGGAGTGCATAATTCTATTAACACC,10.2 ± 0.18
8,AAAGAAAAAAAAAAAAAAAAAAAAAAAATTATACAT [CACACA_negctrl_site7],9.36 ± 0.042
9,TATATAAAATAATAATGTACTCATTAAAATTATAGA [XGTACX_site4507],11.1 ± 0.92
10,AAAAATAACATATAAACACACATATATATATATATA [CACACA_site3802],9.9 ± 0.35
11,TACTTTATATTATATATATATATATATATATATATA [CACACA_negctrl_site1765],9.74 ± 0.39
12,GAATTTCGATATATGTGTACGCATTTGTATTATAGG [XGTACX_site6332],11.7 ± 1.1
13,TACATATTGCACAAATAAAAAAGAACAAAAAAAAAA [CACACA_negctrl_site1200],10.1 ± 0.16
14,ATATATATATATATATGTACATATATTCGATTATTA [XGTACX_site557],11.4 ± 0.85
15,ATAATATTTCTTACCTTTGGATGTTCTAATTTTTTT [CACACA_negctrl_site1317],9.995 ± 0.007
16,AAAAAAAAAAAAAAATATAAATATATATATATATAT [GTGCAC_negctrl_site28],9.77 ± 0.41
17,TACATAAAATATATCACACATATAATATATATATAT [CACACA_site5834],9.93 ± 0.42
18,ATTGTAAATATAGAAGTGCAAAAGGGTATGAAATGA,10.32 ± 0.021
19,TACAAAAAAAATGTATTTAGGACATATATATGTTTA [XGTACX_negctrl_site455],10.2 ± 0.34
20,AATTAAATATTATAAACACACATATATATTATTTTT [CACACA_site865],9.68 ± 0.23
21,AAACGAACATATAAATGTACATATATATACATATAT [XGTACX_site8086],11 ± 0.64
22,TATGTATTAAATTTTACACACATGATTCTCTATATA [CACACA_site2298],9.91 ± 0.042

row,Sequence,gcPBM binding intensity (ln)
1,AATACATTTATGAGCTGTACACATTTATTTGAGCTA [XGTACX_site7695],11.5 ± 1
2,AGTGTAATTTTCCACTGTACTTTTCTTGTATATAAT [XGTACX_site4201],11.6 ± 1.1
3,ATATATATTAATATTTGTACATAAAATTATTTCAAT [XGTACX_site5364],11.2 ± 0.49
4,AAAGTAACACACTAATATTTTAACAAATAATATATA [GTGCAC_negctrl_site132],9.84 ± 0.11
5,TACCTTTCTTATTATTGAAAAGGAATATATAAATAG [CACACA_negctrl_site272],9.94 ± 0.16
6,AATAATAATTTGAATACACACAATAATATATATATA [CACACA_site2059],9.9 ± 0.28
7,ATACAAAAAATCACATGTACATATTCTTAAATGGTA [XGTACX_site8502],11.2 ± 0.71
8,CATATGTATTTATTCACACATATATATATATATATA [CACACA_site4207],10.1 ± 0.32
9,TTATTCTAAAAGTGTTTGCACTTTTATAATCATATA [GTGCAC_site9929],9.95 ± 0.22
10,TATACAGATAAATACACACACACATATATATATATA [CACACA_site4845],10.1 ± 0.24
11,TTATATCATTTTCCTGCACACATAAATTTATATAAT [CACACA_site8257],10.3 ± 0.16
12,ACAAAATATACAAAATGTACAAAATATACAAAATGT [XGTACX_site6467],10.6 ± 0.26
13,TGTATTCCTTTTTATAGTACAATTTAAAAGTATAAA [XGTACX_site2045],11.1 ± 0.69
14,GTACGTTTCTCCAGACTGCACTATACGACTCGTACA [GTGCAC_site9771],10.9 ± 0.47
15,AGAAAGATGCAAGAAACATGCAAAAAAAAAATTTCT [TGCATGCA_site725],9.53 ± 0.29
16,CACAAATATACAAATACACACAAATATACTCATATA [CACACA_site5339],10.145 ± 0.007
17,AAAAAATTATATAATAATAGAACTATACATTTTATT [GTGCAC_negctrl_site645],9.59 ± 0.18
18,ACATAATATATATATTGTACAAATATATTATTGTTA [XGTACX_site3385],10.8 ± 0.33
19,AGCCACGGGTTATATACACACATAATCAAATAAAAT [CACACA_site6117],10.1 ± 0.11
20,ATTTTTAATGGATAAGTGCATAATATTATGATGCAA,9.99 ± 0.16
21,TATGTAATAAAATATACACACAATATACTTATATAT [CACACA_site3682],9.985 ± 0.021
22,ATTTATAATATTCAAGTGCATATATATTTTTTACTT,9.945 ± 0.092

# Reference: the supplement of paper PMC11417369
